The values below come from patent publication US10730895B2, “Carbidopa prodrug” (AbbVie Inc., priority 2014, dated 2020).

The solubility is the concentration that dissolves in the medium under given conditions. By half-life is commonly meant the time needed for the level to fall by half in the phase considered.

Series [1] can be described thus: Solubility study in water by visual assessment. The class given is physicochemical. The settings on record: for solubility: water. The method, then: The L-dopa phosphate prodrugs and the carbidopa phosphate prodrugs were evaluated in a solubility study. The solubility values of the phosphate prodrugs in water under ambient conditions were determined by visual assessment. Table 13-A reports the results of the study, including the measured values for L-dopa and carbidopa.

Series [2] in a line: In vitro bioconversion study, human liver microsomes. The class given is in vitro ADME. The conditions noted are these: human liver microsomes 1 mg/mL. A general note: Liver microsomes are a subcellular fraction often used to study metabolism.
Series [3] in a line: In vitro bioconversion study, skin homogenates (human). Format: in vitro ADME. The settings on record: for L-Dopa or Carbidopa Formation: human skin homogenate; for half-life at 2.5 ug/mL: human skin homogenate 3 mg/mL, 37° C.
Series [4] is described as follows: 1-day stability study of individual prodrugs in aqueous solution. The class given is physicochemical. The settings on record: aqueous solution 80 μg/mL, ambient storage, pH 7.0. As for the experimental part: The L-dopa phosphate prodrugs and the carbidopa phosphate prodrugs were evaluated in a stability study.
Series [5] can be described thus: In vitro bioconversion study, skin homogenates (mini-pig). The class given is in vitro ADME. The settings on record: for L-Dopa or Carbidopa Formation: mini-pig skin homogenate; for half-life at 2.5 ug/mL: minipig, mini-pig skin homogenate 3 mg/mL, 37° C.
The nature of series [6]: In vitro bioconversion study, blood (human). Format: in vitro ADME. The conditions noted are these: for half-life at 2.5 ug/mL: prodrug 2.5 ug/mL, 37° C.
A short description of series [7]: In vitro bioconversion study, blood (mini-pig). Format: in vitro ADME. The settings on record: for half-life at 2.5 ug/mL: minipig, prodrug 2.5 ug/mL, 37° C.
Series [8] is described as follows: In vitro bioconversion study, blood (rat). Format: in vitro ADME. The settings on record: for half-life at 2.5 ug/mL: prodrug 2.5 ug/mL, 37° C.
The nature of series [9]: Pharmacokinetic study in rats, individual prodrug IV or SC. The class given is in vivo, Sprague-Dawley rats. The conditions noted are these: rat; for Estimated Conversion % (Based on L-dopa AUC): dose 7.05 mg/kg; for AUC: male, Sprague-Dawley, plasma, dose 5 mg/kg, L-dopa and carbidopa in aqueous solution, read-out: L-dopa AUCO-8 h. As for the experimental part:
For comparison, a rat pharmacokinetics study with L-dopa and carbidopa was conducted to help assess the in vivo conversion of the prodrugs. The study design and measured exposures of L-dopa and carbidopa are summarized in Tables 16-A and 16-B, respectively. In brief, groups of three male Sprague-Dawley rats were given (1) L-dopa and carbidopa in aqueous solution, or (2) the individual prodrug in aqueuous solution intravenously or subcutaneously. Blood samples were collected at multiple time points over 24 hours into a collection tube containing NaAsO4, EDTA, and ascorbic acid. […] The supernatants were subjected to LC-MS analysis for quantitation of prodrug, L-dopa or carbidopa.

Series [10] is described as follows: In vitro bioconversion study, skin homogenates (rat). The class given is in vitro ADME. The conditions noted are these: for L-Dopa or Carbidopa Formation: rat skin homogenate; for half-life at 2.5 ug/mL: rat skin homogenate 3 mg/mL, 37° C.
Series [11] in a line: In vitro bioconversion study, liver S9 fraction (rat). The class given is in vitro ADME. The settings on record: rat liver S9 fraction 1 mg/mL.
Series [12] can be described thus: In vitro bioconversion study, liver S9 fraction (human). The class given is in vitro ADME. The settings on record: human liver S9 fraction 1 mg/mL.
A short description of series [13]: In vitro bioconversion study, intestinal S9 fractions (rat). Format: in vitro ADME.
Series [14] is classed as in vivo, rats. The conditions noted are these: rat, 4:1 combination, SC bolus 60/14 mg/kg then SC infusion 300/71 mg/kg. As for the experimental part: After 1.5 hours, the combination was dosed again via continuous infusion at a dose of 300/71 mg/kg over next 14.5 hours. Blood samples were collected at 0, 0.25, 1, 6, 16, and 24 hours post dose. […] FIG. 7 provides a time-concentration profile for L-dopa and L-dopa 4′-monophosphate blood levels after administration of the combination of 4′-monophosphate prodrugs at a 4:1 ratio. […] Steady state concentration of ˜1 μg/mL was maintained over the infusion period for carbidopa. […] FIG. 9 provides a time-concentration profile for carbidopa and carbidopa 4′-monophosphate blood levels after administration of the combination of 4′-monophosphate prodrugs at a 4:1 ratio.

Series [15] can be described thus: In vitro bioconversion study, kidney S9 fraction (human). The class given is in vitro ADME. The settings on record: human kidney S9 fraction 1 mg/mL.
A short description of series [16]: In vitro bioconversion study, kidney S9 fraction (rat). Format: in vitro ADME. The settings on record: rat kidney S9 fraction 1 mg/mL.
The nature of series [17]: In vitro bioconversion study, intestinal S9 fractions (human). Format: in vitro ADME.
The conditions of series [18]: mini-pig, 15:1 combination 48/3.2 mg/kg.
Series [19] is described as follows: 7-day stability study, 4′-monophosphate combination solution. Format: physicochemical. The settings on record: combined solution L-dopa 4′-monophosphate 200 mg/mL + carbidopa 4′-monophosphate 50 mg/mL, pH 7.4, room temperature. The method, then: In addition, a solution combining the L-dopa 4′-monophosphate at 200 mg/mL and carbidopa 4′-monophosphate at 50 mg/mL was monitored over 7 days at room temperature. These samples were prepared with and without purging with nitrogen to remove oxygen.

The nature of series [20]: In vitro bioconversion study, liver S9 fraction (mini-pig). Format: in vitro ADME. The settings on record: mini-pig liver S9 fraction 1 mg/mL.
Series [21] is described as follows: Human prediction of steady state exposures and phosphorus daily load.

Read-outs that look alike come from different tables or passages of the source.

With `N[C@@H](Cc1ccc(O)c(OP(=O)(O)O)c1)C(=O)O` [L-dopa 3′-phosphate], the solubility in series [1] (thermodynamic from solid, ambient, pH 7.0, crystalline, read-out: Solubility) is more than 161 mg/mL. The “stability and L-dopa or carbidopa formation” value in series [2] is “stable without formation of L-dopa or carbidopa observed”. For the same compound, the “L-Dopa or Carbidopa Formation” value in series [3], in [5], in [6], in series [7], in series [8] and in [10] was “Yes” throughout. The half-life at 2.5 ug/mL was determined as 11.2 h in series [3]; 14.8 h in series [5]; 0.467 h in series [6]; 8.8 min in series [7]; 0.343 h in series [8]; 12.3 h in series [10]. The “% Remaining After One Day” value in series [4] was more than 99%. The “Estimated Conversion % (Based on L-dopa AUC)” value is 66% in [9] (IV) and 96% in series [9] (SC).

With `N[C@@H](Cc1ccc(OP(=O)(O)O)c(O)c1)C(=O)O` [L-dopa 4′-phosphate, (S)-2-amino-3-(3-hydroxy-4-(phosphonooxy)phenyl)propanoic acid], the “solubility compared to L-dopa and carbidopa” value in series [1] (FIG. 1, pH of 7.4) is reported as “increased solubility”. For the same compound, the solubility was more than 400 mg/mL in series [1] (thermodynamic from solid, ambient, pH 7.4, L-dopa 4′-phosphate crystalline, carbidopa 4′-phosphate amorphous, read-out: Solubility) and more than 300 mg/mL in [1] (can reach as high as, read-out: aqueous solubility). The “stability and L-dopa or carbidopa formation” value in series [11], in series [12], in [15], in series [16] and in [20] was “stable without formation of L-dopa or carbidopa observed” throughout. Moreover, the “L-Dopa or Carbidopa Formation” value in series [13] (rat intestinal S9 fraction), in series [3], in series [17] (human intestinal S9 fraction), in [5], in series [6] and in series [7] was “Yes” in each case. Further, the “L-Dopa or Carbidopa Formation” value in series [8] and in [10] was “Yes” each time. In addition, the half-life at 2.5 ug/mL is 2.63 h in series [13] (rat intestinal S9 fraction 1 mg/mL); 9.87 h in [3]; 0.572 h in [17] (human intestinal S9 fraction 1 mg/mL); 7.07 h in [5]; 0.515 h in [6]; 8.8 min in series [7]. For the same compound, the values for the half-life at 2.5 ug/mL in [8] and in series [10] were 0.25 h and 16.5 h, respectively. In [14], the “Exposure of the remaining L-dopa 4′-monophosphate, % of levodopa” value is given as approximately 22%. In addition, the “% Remaining After One Day” value in [4] is on record as more than 99%. Moreover, in [18], the “Exposure of the remaining L-dopa 4′-monophosphate, % of the levodopa exposure” value is approximately 10%. The “% Remaining After 7 Days” value in series [19] (Nitrogen Purged) and in series [19] (Non-Purged) was more than 99% each time. Besides, the “Estimated Conversion % (Based on L-dopa AUC)” value in series [9] (IV) and in series [9] (SC) was more than 100% throughout. The Css of levodopa in [21] (human, one 20-mL vial of dose solution per day delivering >6000 mg per day, assuming linear human pharmacokinetics) was more than 5000 ng/mL. Also, the “SC F Value” in series [21] (projected human bioavailability after subcutaneous dosing) is 0.75. For the same compound, the “Bioconversion ratio Value” in [21] (projected human, prodrug to levodopa or carbidopa, mean bioconversion ratios observed in preclinical animals) is given as 0.9.

In the case of `N[C@@H](Cc1ccc(O)c(O)c1)C(=O)O` [L-dopa, L-3,4-dihydroxyphenylalanine, reference compound], the solubility in series [1] (thermodynamic from solid, ambient, pH 4-7, crystalline (carbidopa: crystalline monohydrate), read-out: Solubility) was less than 6 mg/mL. In addition, the values for the AUC in series [9] (IV) and in series [9] (SC) were 1170 ng·h/mL and 669 ng·h/mL, respectively.
